Measured values published in PubChem BioAssay AID463173 (ICCB-Longwood Screening Facility, Harvard Medical School, 2010).
Out of some 52,000 compounds screened, about 1,700 (3.3%) were called active. No stated cut-off is given here; in the data, active means survival mostly below about 52% (no sharp cut-off); inactive means mostly above about 56%. The list shows a part of the results.

The compounds below were run on Wild type (assay: S. aureus survival, RN4220 and DeltatarO strains – OD600, teichoic acid synthesis inhibitors, primary screen (AID 463173)). Conditions: S. aureus RN4220 wild type/DeltatarO growth, OD600, 18 h, hits give low values, screened at 18.75 µg/mL (by protocol).

| SMILES | survival |
| --- | --- |
| O=C1C(=O)N(c2cccnc2)C(c2ccc(O)cc2)/C1=C(\O)c1ccc(Br)cc1 (stereo not given) | inactive: 102% |
| Cc1ccc2nc3c(cc(C(=O)NC4CCCCC4)c(=N)n3C(C)C)c(=O)n2c1 | inactive: 75% |
| CCOC(=O)c1ccc(NC(=O)CC2NCCNC2=O)cc1 (stereo not given) | inactive: 87% |
| CCn1c2ccccc2c2cc(NC(=O)COc3ccc(C)c(C)c3)ccc21 | inactive: 128% |
| CCOC(=O)C1CCN(S(=O)(=O)c2ccc3c(c2)NC(=O)C(C)C(=O)N3)CC1 (stereo not given) | inactive: 114% |
| Cc1ccc(-c2ccc(=O)n(CC(=O)NCc3ccc(F)cc3)n2)cc1 | inactive: 83% |
| COc1ccc(-c2nc3n(n2)C(=O)CC(c2ccc(Cl)cc2)S3)cc1 (stereo not given) | inactive: 78% |
| CCN(CC)C(=O)Oc1ccc(Cl)c2cccnc12 | inactive: 107% |
| N#Cc1cccc(NC(=O)C2CCN(c3ncccn3)CC2)c1 | inactive: 82% |
| CCOc1cc(C(=O)Nc2ccc(-c3nc4ncccc4o3)cc2C)cc(OCC)c1OCC | inactive: 95% |
| CCS(=O)(=O)CCSc1nc(-c2ccc(Br)cc2)cc(-c2ccccc2)c1C#N | inactive: 99% |
| CC1=C(C(=O)Nc2ccccc2C)C(c2cccnc2)n2nc(SCc3ccccc3F)nc2N1 (stereo not given) | inactive: 81% |
| Cc1cc(C)nc(NCCS)n1 | inactive: 102% |
| COC(=O)c1ccc(NC(=O)C2CCN(C(=O)c3ccc(F)cc3)CC2)cc1 | inactive: 69% |
| O=C(O)CCc1ccc(-c2ccccc2)n1CC(=O)Nc1ccccc1C(F)(F)F | inactive: 77% |
| COc1ccccc1CNC(=O)CCCCn1c(=O)c2ccccc2n(CC(=O)Nc2cc(Cl)ccc2C)c1=O | inactive: 91% |
| O=c1c2[nH]c3ccccc3c2nc(SCc2cccc(F)c2)n1-c1ccccc1 | inactive: 53% |
| COc1ccc2c(c1)c1c(c(=O)n(-c3ccccc3C)c(=O)n1CC(=O)Nc1c(C)cccc1C)n2C | inactive: 77% |
| Cc1ccccc1Nc1nn2c(=O)c3ccc(C(=O)N4CCCC(C)C4)cc3nc2s1 (stereo not given) | inactive: 78% |
| O=C(CCc1ccccc1)NC1CC(=O)N(c2ccccc2)C1 (stereo not given) | inactive: 78% |
| COc1cccc(OC)c1C(=O)Nc1ccc2c(c1)N(C(C)=O)CCC2 | inactive: 74% |
| Cc1ccc(NC(=O)CCC(=O)N2Cc3ccccc3Oc3ncccc32)cc1 | inactive: 22% |
| COc1ccc(NC(=O)Cn2c(SCc3ccc(C)cc3)nc3cccnc32)c(OC)c1 | inactive: 85% |
| CC1=NNC(=O)C1CC(=O)N/N=C/C=C/c1ccccc1 (stereo not given) | inactive: 104% |
| COc1ccc(-c2cnc(C)o2)cc1S(=O)(=O)Nc1ccc(C)c(N(C)C)c1 | inactive: 128% |
